# Measured values published in PubChem BioAssay AID624417 (National Center for Advancing Translational Sciences (NCATS), 2012).
# Screen size: about 410,000 compounds; about 6,400 (1.6%) were called active. The shares of active, inactive and inconclusive entries below differ from those in the screen. Calls come from the whole dose curve; as a rule, active = well fitted inhibition curve with a large enough effect; inconclusive = small, poorly fitted or top-dose-only effect; inactive = no such curve, though single readings can be large or run the other way. Potencies of inconclusive entries are left out as doubtful fits.
# Molecular target: Glucagon-like peptide 1 receptor (Homo sapiens) (UniProt P43220)
# Assay: qHTS of GLP-1 Receptor Inverse Agonists (Inhibition Mode); note: nearly all actives have a fitted effect of over 55% in size
# Details: HEK293 GLP-1R CRE-luciferase, luminescence, 24 h, GLP-1R form is constitutively active; series mostly up to 38.3 µM
# Method in brief: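 GLP-1R inverse agonism mode: basal reporter luminescence in engineered HEK293 cells measured after one day of compound exposure at 37 deg C, with a 12 min room-temperature detection step.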
# Potency is the fitted concentration of half-maximal effect; tags give direction and shape of the fitted curve.
# Chain of UniProt P43220 (P43220 whole entry, looked up): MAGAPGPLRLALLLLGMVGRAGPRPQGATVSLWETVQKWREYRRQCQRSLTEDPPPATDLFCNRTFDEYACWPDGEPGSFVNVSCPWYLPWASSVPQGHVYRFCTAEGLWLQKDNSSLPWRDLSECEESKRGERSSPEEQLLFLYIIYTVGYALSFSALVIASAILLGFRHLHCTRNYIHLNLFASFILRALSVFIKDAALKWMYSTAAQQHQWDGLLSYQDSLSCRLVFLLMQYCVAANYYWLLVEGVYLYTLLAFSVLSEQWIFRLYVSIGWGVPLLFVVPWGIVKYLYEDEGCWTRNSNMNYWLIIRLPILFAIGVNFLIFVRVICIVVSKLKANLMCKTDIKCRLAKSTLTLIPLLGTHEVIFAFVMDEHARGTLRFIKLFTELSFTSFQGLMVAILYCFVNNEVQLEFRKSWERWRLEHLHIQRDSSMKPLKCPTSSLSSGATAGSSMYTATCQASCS
row,Compound,Potency
1,Cc1cc(C)c(NC(=O)CSc2nc3ccccc3c3nc(-c4ccccc4)nn23)c(C)c1,inactive
2,CC1CCC(N2CC(=O)N(Cc3ccc4c(c3)OCO4)C(c3ccc(F)cc3)C2=O)CC1 (stereo unspecified),"inconclusive [inhibitor, full curve, poor fit]"
3,CC(=O)Nc1ccc(-c2ccnc3c2CC(C(=O)NCC2CCOCC2)O3)cc1 (stereo unspecified),"inconclusive [inhibitor, full curve, poor fit]"
4,CCC(=O)NC(c1ccco1)c1cc(Cl)c2cccnc2c1O (stereo unspecified),active: 7.08 µM
5,O=C1c2sc3nc4c(c(=O)n3c2C(=O)N1c1ccccc1)CCC4,inactive
6,CCOC(=O)C1(Cc2cccc(Cl)c2)CCCN(C(=O)c2c(CC)noc2C)C1 (stereo unspecified),"inconclusive [inhibitor, single point]"
7,CCCc1nc2sc3c(c2c(=O)[nH]1)CCCC3,inactive
8,S=c1nn[nH]c2ccccc12,inactive
9,O=C(CN1CCN(S(=O)(=O)c2ccc(Br)cc2)CC1)N/N=C/c1ccc(Cl)c([N+](=O)[O-])c1,"inconclusive [inhibitor, single point]"
10,COC(=O)c1c(NC(=O)CN2CCC3(O)CCCCC3C2c2ccc(F)cc2)sc(C)c1C (stereo unspecified),"inconclusive [inhibitor, single point]"
11,CCCCOc1ccc(C(=O)C(CN2CCOCC2)c2ccccc2)cc1 (stereo unspecified),"inconclusive [inhibitor, partial curve, poor fit]"
12,CCOC(=O)c1nc2cc3n(c(C)c-2c1C)C(C)C(CC)=C3C (stereo unspecified),"inconclusive [inhibitor, partial curve, poor fit]"
13,CCc1ccc(NC(=O)CSC2=Nc3ccccc3C3=NC(CCC(=O)NCc4ccco4)C(=O)N23)cc1 (stereo unspecified),inactive
14,O=C(Nc1ccc(Cl)cc1)Nc1ccc2c(c1)N1CCN=C1S2,"inconclusive [inhibitor, full curve, poor fit]"
15,CCc1nc(Nc2ccc(F)cc2)c2oc3ccccc3c2n1,"inconclusive [inhibitor, single point]"
16,CN1CCN(c2ccc(NC(=O)COc3ccccc3Cl)cc2)CC1,"inconclusive [inhibitor, single point]"
17,CN(Cc1ccccc1)C(=O)c1ccc(Nc2nc(C(N)Cc3ccccc3)cs2)nc1 (stereo unspecified),"inconclusive [inhibitor, partial curve]"
18,CCOC(=O)c1c(NC(=O)CSc2ncccn2)sc2c1CC(C)(C)NC2(C)C,"inconclusive [inhibitor, single point]"
19,O=C1NC(=O)c2c(NC(=O)C3CCCO3)cccc21 (stereo unspecified),inactive
20,CC(C)(C)c1cc(Cl)ccc1OCCOCCN1CCCC1,"inconclusive [inhibitor, full curve]"
21,O=C(CN1C(=O)CCc2cc(S(=O)(=O)N3CCOCC3)ccc21)NCc1ccccc1,inactive
22,CC(C)n1c(-c2cccs2)nc2ccccc21,"inconclusive [inhibitor, partial curve, poor fit]"

row,Compound,Potency
1,CCNc1nc(OC)nc(Oc2ccc(=O)[nH]n2)n1,inactive
2,Cc1ccccc1NC(=O)CSc1nc2c(c(=O)n(C)c(=O)n2C)n1Cc1ccccc1F,inactive
3,Cc1ccc(C(=O)c2c(NC(=O)c3cccnc3)sc3c2CCCC3)cc1,"inconclusive [inhibitor, partial curve, poor fit]"
4,CCOCCCNc1ncnc2c1cnn2-c1ccc(C)c(C)c1,"inconclusive [inhibitor, partial curve, poor fit]"
5,COC(=O)c1cc2ccsc2n1CC(=O)Nc1cc(C)cc(C)c1,inactive
6,CC(NCc1ccc(OCC(N)=O)cc1)C12CC3CC(CC(C3)C1)C2 (stereo unspecified),"inconclusive [inhibitor, partial curve, poor fit]"
7,CCN(CC)Cc1csc2ccc(Br)cc12,"inconclusive [inhibitor, partial curve]"
8,CC(C)(C)c1ccc(C(CC(=O)O)NC(=O)c2ccccc2F)cc1 (stereo unspecified),inactive
9,COc1ccc2c(c1)C=C(C(=O)NCc1ccc(Cl)cc1)CO2,"inconclusive [inhibitor, single point]"
10,CCOC(=O)c1c(CN2CCN(Cc3ccccc3)CC2)n(C)c2cc(Br)c(OC)cc12,"inconclusive [inhibitor, full curve, poor fit]"
11,CCOC(=O)C1CCN(C(=O)Cn2c(=O)oc3cc(S(=O)(=O)N4CCC(C)CC4)ccc32)CC1,inactive
12,C[C@@H]1CN([C@@H](C)CO)C(=O)c2cc(NC(=O)Nc3ccccc3)ccc2O[C@@H](C)CCCCO[C@H]1CN(C)C(=O)Nc1ccc(C(F)(F)F)cc1,"inconclusive [inhibitor, partial curve]"
13,CCN(Cc1ccncc1)C(=O)c1cc(COc2ccc(F)cc2Cl)on1,"inconclusive [inhibitor, single point]"
14,C=C(C)Cn1c(=O)c2c(nc3n2CCN3c2cccc(Cl)c2C)n(C)c1=O,"inconclusive [inhibitor, partial curve, poor fit]"
15,CC(=O)N1CCc2c(sc3c2c(=O)n(CCc2ccccc2)c(=O)n3Cc2ccc(Cl)cc2)C1,"inconclusive [inhibitor, single point]"
16,CC(C)CC(=O)/C(=C\c1ccc(Cl)cc1Cl)n1cncn1,"inconclusive [inhibitor, single point]"
17,C[C@H](NCc1c[nH]c2ccccc12)c1ccccc1,"inconclusive [inhibitor, partial curve, poor fit]"
18,CCN(Cc1ccccc1)C(=O)CN(c1ccc(OC)cc1)S(=O)(=O)c1c(C)nn(C)c1C,inactive
19,CCCN(CC1CC1)C(=S)NC(=O)C1CC1,inactive
20,CCSc1ncc(Cl)c(C(=O)Nc2ccc(S(=O)(=O)N3CCCCC3)cc2)n1,"inconclusive [inhibitor, partial curve, poor fit]"
21,O=[N+]([O-])c1ccc(N(CC(O)CN2CCCCC2)S(=O)(=O)c2ccccc2)cc1 (stereo unspecified),"inconclusive [inhibitor, single point]"
22,CCOc1ccc(N2C(=O)C(Cl)=C(Nc3ccccc3O)C2=O)cc1,"inconclusive [inhibitor, single point]"

row,Compound,Potency
1,O=C(CSc1nnnn1-c1cccc2c1CCCC2)NC1CCCC1,"inconclusive [inhibitor, partial curve, poor fit]"
2,c1ccc(-c2ccccc2OCCOCCN2CCc3ccccc3C2)cc1,"inconclusive [inhibitor, partial curve, poor fit]"
3,CCCCc1ccc(NC(=O)c2ccc(=O)n(Cc3cccc(C)c3)c2)cc1,active: 7.08 µM
4,NC(Cc1ccccc1)c1csc(Nc2ccc(C(F)(F)F)cn2)n1 (stereo unspecified),"inconclusive [inhibitor, partial curve]"
5,Cc1cc(C(=O)COC(=O)CC2Sc3ccccc3NC2=O)c(C)n1-c1ccc2c(c1)OCO2 (stereo unspecified),"inconclusive [inhibitor, single point]"
6,CC(=O)OC[C@@H]1CN(Cc2ccccc2)C[C@H](n2cnc3c(N4CCN(c5ccccc5)CC4)ncnc32)O1,"inconclusive [inhibitor, single point]"
7,COc1ccc(-c2nc(C)c(CCNS(=O)(=O)c3cc(C)c(C)cc3C)s2)cc1,"inconclusive [inhibitor, single point]"
8,Cc1ccc(NC(=S)NCc2ccc(F)cc2)cc1,"inconclusive [inhibitor, partial curve, poor fit]"
9,CCCCCC(=O)Nc1cccc(C2=NOC3(C2)C[C@H](C(N)=O)N(C(=O)c2ccccc2C(=O)c2ccccc2)C3)c1 (stereo partly specified),"inconclusive [inhibitor, single point]"
10,CCCc1c(-c2ccc(F)cc2F)ncn1Cc1ccccc1OC,"inconclusive [inhibitor, partial curve, poor fit]"
11,COc1ccc(C(=O)CN2CCN(CCN3C(=O)c4cccc5cccc(c45)C3=O)CC2)cc1,"inconclusive [inhibitor, single point]"
12,O=C(NC1CCCC1)c1ccccc1-c1ccccc1,inactive
13,COc1nc(N(c2ccccc2)c2ccccc2)nc(-n2ccnc2)n1,"inconclusive [inhibitor, single point]"
14,CCOc1cc(/C=C2\SC(N)=NC2=O)ccc1O,inactive
15,Cc1ccc(NC(=O)CSc2nnc(-c3ccco3)c(-c3ccco3)n2)cc1,"inconclusive [inhibitor, partial curve, poor fit]"
16,Oc1ccc(N=Nc2ccccc2)cc1,inactive
17,CC1C(c2ccccc2)OCCN1C(=S)Nc1ccc(S(=O)(=O)N2CCCCC2)cc1 (stereo unspecified),"inconclusive [inhibitor, single point]"
18,CCOC(=O)c1ccccc1NC(=O)N(C(C)C)C1CCN(C(C)=O)CC1,inactive
19,Cc1ccc(C(=O)NC(=S)N2CCCC2)cc1,"inconclusive [inhibitor, single point]"
20,COc1ccc(N(CC(=O)N/N=C/c2cc(OC)ccc2OC)S(=O)(=O)c2ccccc2)cc1,"inconclusive [inhibitor, single point]"
21,Cc1ccc2nc(NC(=O)C3CCN(S(=O)(=O)c4cnc[nH]4)CC3)sc2c1,"inconclusive [inhibitor, partial curve]"
22,CCOc1ccc(/C=N/Nc2nc(=O)[nH]nc2C)cc1OC,inactive
